Assay results published in PubChem BioAssay AID686978 (National Center for Advancing Translational Sciences (NCATS), 2013).
About 64,000 (15%) of roughly 420,000 compounds were called active. The inconclusive results got no clear call from the source; some entries with a clear call stand among them for comparison. The call rests on the fitted dose curve; in most records, active means well fitted inhibition curve with a large enough effect; inconclusive means small, poorly fitted or top-dose-only effect; inactive means flat fitted curve, though single readings scatter. Potencies of inconclusive entries are left out as doubtful fits.

assay: qHTS for Inhibitors of human tyrosyl-DNA phosphodiesterase 1 (TDP1): qHTS in cells in absence of CPT; conditions: DT40 Tdp1-/- hTDP1 cells, no CPT, ATP luminescence, 48 h; activity change, negative = growth inhibition: at 46.2 µM (top of the series); further: nearly all actives have a fitted effect of over 55% in size
Method in brief: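 DT40 Tdp1-/-;hTDP1 cells, no CPT (DMSO vehicle only), 400 cells/well; compounds pin-transferred; ≥48 hr, 37 °C; CellTiter-Glo 30 min RT dark, luminescence read.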
On the % scale 0 is the no-effect control and ±100 the full control effect; potency means the concentration at half of the fitted maximal effect; tags describe the fitted curve by direction and shape.

Question: With `CCN(CC)S(=O)(=O)c1ccc(C(=O)N2CCc3ccccc32)cc1` as the molecule, how does the Potency read?
Answer: Its Potency is inconclusive [inhibitor, partial curve].

Question: For `CC(=O)c1cccc(NS(=O)(=O)c2ccc3c(c2)oc(=O)n3C)c1`, which Potency is on record?
Answer: The Potency was inconclusive [inhibitor, partial curve].

Question: For `CCOC(=O)C1=CCN(S(=O)(=O)c2ccc(Br)cc2)C1c1ccccc1` (stereo not drawn), which Potency is on record?
Answer: Its Potency is inconclusive [inhibitor, single point].

Question: Which Potency does the source give for `COCCCNC(=O)N1[C@H](c2cccs2)[C@@H](C)C(=O)[C@@H](C)[C@@H]1c1cccs1` here?
Answer: Its Potency is “inactive”.

Question: For `O=Cc1ccc(-n2nncc2-c2ccc([N+](=O)[O-])cc2)cc1`, which Potency is on record?
Answer: The Potency was inconclusive [inhibitor, single point].

Question: Which Potency does the source give for `CCOc1ccc(Cn2nnc(C(=O)NCCc3ccccc3)c2N)cc1` here?
Answer: Its Potency is “inactive”.

Question: Which Potency does the source give for `O=C(Cn1cc(C(=O)c2ccncc2)c(=O)c2cc(F)ccc21)Nc1ccc(Cl)cc1` here?
Answer: Its Potency is inconclusive [inhibitor, single point].

Question: For `CC(C)(C)c1ccc(NC(=O)c2cc(C3CCCN(C(=O)CCc4ccccc4)C3)on2)cc1` (stereo not drawn), which Potency is on record?
Answer: Its Potency is active: 11.6 µM.

Question: Which Potency does the source give for `CC(=O)Nc1ccc(S(=O)(=O)N(C)c2nc3ccccc3nc2Cl)cc1` here?
Answer: The Potency was active: 23.1 µM.

Question: For `COc1ccc(OC)c(CCNC(=O)c2ccc(CS(=O)Cc3ccc(Cl)cc3)o2)c1` (stereo not drawn), which Potency is on record?
Answer: Its Potency is inconclusive [inhibitor, single point].

Question: Which activity change, negative = growth inhibition does the source give for `CC1(C)CC(=O)C2=C(C1)N(Cc1cccnc1)C(=O)C2(NC(=O)C1CC1)C(F)(F)F` (stereo not drawn) here?
Answer: The activity change, negative = growth inhibition was inconclusive: -40.4% [inhibitor].

Question: For `COc1cccc(C(C)(O)c2nc(-c3ccc4ccccc4c3)cs2)c1` (stereo not drawn), which Potency is on record?
Answer: Its Potency is inconclusive [inhibitor, single point].

Question: With `COc1ccccc1CNC(=O)CCn1c(=O)c2ccccc2n(CC(=O)Nc2ccc(Br)cc2F)c1=O` as the molecule, how does the Potency read?
Answer: The Potency was inconclusive [inhibitor, single point].

Question: With `Cc1cc(C)cc(NC(=O)[C@@H](NC(=O)c2ccco2)C(C)C)c1` as the molecule, how does the Potency read?
Answer: The Potency was “inactive”.

Question: For `COc1ccccc1NC(=O)C1CCN(S(=O)(=O)c2ccc3c(c2)CC(C)N3C(C)=O)CC1` (stereo not drawn), which Potency is on record?
Answer: The Potency was inconclusive [inhibitor, single point].

Question: For `Cc1ccc(O)c(NC(=O)c2noc3c2CCCC3)c1`, which Potency is on record?
Answer: The Potency was inconclusive [inhibitor, partial curve].

Question: Which Potency does the source give for `O=C(OCCOc1cccc(Cl)c1)c1cc(S(=O)(=O)N2CCOCC2)ccc1F` here?
Answer: The Potency was inconclusive [inhibitor, single point].

Question: Which Potency does the source give for `c1ccc2c(N=NN3CCCCC3)ccnc2c1` here?
Answer: The Potency was inconclusive [inhibitor, partial curve, poor fit].
